# Test results from the supplement of paper PMC3334620.
# The full ranking holds about 33,000 sequences; the median of “E-score (-0.5 to 0.5)” is about -0.043, and the highest 2% start at about 0.37. Some of the results follow.
# Target: T1, Upc2 (UniProt Q12151)
# T1 sequence: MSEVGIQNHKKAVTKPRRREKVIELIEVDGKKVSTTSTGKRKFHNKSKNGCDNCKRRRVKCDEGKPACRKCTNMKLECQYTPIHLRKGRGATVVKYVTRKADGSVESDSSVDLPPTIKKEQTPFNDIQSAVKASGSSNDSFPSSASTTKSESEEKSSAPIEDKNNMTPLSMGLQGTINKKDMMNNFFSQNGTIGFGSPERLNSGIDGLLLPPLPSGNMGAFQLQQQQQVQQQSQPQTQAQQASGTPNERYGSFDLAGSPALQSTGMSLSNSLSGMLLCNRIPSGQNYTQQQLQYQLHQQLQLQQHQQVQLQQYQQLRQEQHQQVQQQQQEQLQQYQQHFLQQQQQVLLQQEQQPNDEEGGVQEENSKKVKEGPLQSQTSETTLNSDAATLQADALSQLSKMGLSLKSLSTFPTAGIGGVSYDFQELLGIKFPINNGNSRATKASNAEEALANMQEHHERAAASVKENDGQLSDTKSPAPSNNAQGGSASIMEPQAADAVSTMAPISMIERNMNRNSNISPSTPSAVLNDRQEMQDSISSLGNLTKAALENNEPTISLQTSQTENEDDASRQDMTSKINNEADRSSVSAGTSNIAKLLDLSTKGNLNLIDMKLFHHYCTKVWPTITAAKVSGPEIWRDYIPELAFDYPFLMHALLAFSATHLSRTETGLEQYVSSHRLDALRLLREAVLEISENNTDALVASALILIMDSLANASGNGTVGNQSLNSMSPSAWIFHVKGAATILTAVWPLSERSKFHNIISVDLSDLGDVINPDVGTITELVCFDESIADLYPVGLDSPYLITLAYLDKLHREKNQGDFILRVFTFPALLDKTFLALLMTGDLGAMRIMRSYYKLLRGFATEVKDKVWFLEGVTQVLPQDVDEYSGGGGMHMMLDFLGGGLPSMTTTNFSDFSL
# Experiment: PBM E-score (8-mer binding enrichment) (E-score (-0.5 to 0.5)); higher = stronger / more preferred TF binding; most listed sequences are background and not binding sites
# Conditions: protein concentration: 200 nM; construct: GST-full length
# Description: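 Universal 'all 10-mer' protein binding microarrays (Agilent AMADID 015681) probed with GST-tagged S. cerevisiae TFs (full-length or DBD) made by in vitro transcription/translation (PURExpress), about 100-200 nM. Bound TF was detected with fluorescent anti-GST. Each ungapped 8-mer (which stands for itself and its reverse complement) is scored by the PBM enrichment score (E-score), a modified Wilcoxon-Mann-Whitney statistic from -0.5 to +0.5, computed with the Universal PBM Analysis Suite. Scale: above 0.35 generally sequence-specific binding.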
row,Sequence,PBM E-score
1,AGAACCCA,0.0683
2,GCCCTGGA,-0.0731
3,CCCGATGC,-0.0423
4,ACACAAAC,0.0907
5,GCACTGAC,-0.227
6,GAGGACCA,-0.0391
7,GGCTATGA,-0.204
8,TATTTGGA,-0.114
9,CATAGGAA,0.0328
10,CCCAGACA,-0.0315
11,CCACGAGA,-0.277
12,AGTCCTCC,-0.174
13,ATGGACCA,0.0213
14,AATCTAAT,-0.0562
15,CGGCGGAA,-0.0281
16,GTGTGTTA,0.00098
17,ATCCGTGC,0.0414
18,CGCGCAAC,-0.0708
19,AAATGGGG,-0.302
20,ATAGGACA,0.0647
21,CCACGTTA,0.136
22,ACTATCCA,-0.0745

row,Sequence,PBM E-score
1,CTAGAGTA,-0.116
2,ATCAATAG,-0.109
3,CTCCCTCA,-0.176
4,AACCCTTC,0.0691
5,AATTCGTC,0.0116
6,AGGCGCCG,0.109
7,AGTGTTAC,0.107
8,ACCGCATG,-0.0929
9,ACGCTTGA,-0.0409
10,ATTACCTG,-0.148
11,CCGCAGCA,-0.267
12,CTTTTAAA,0.204
13,AAGGCCGT,0.244
14,CATGCTCG,-0.0682
15,CAAAGGGC,-0.362
16,ATGGGACG,-0.0306
17,AAATGGCA,-0.0352
18,GTAGTATA,0.219
19,AAGGCTTA,0.0687
20,ATTCTAAA,0.155
21,CCAGCCGC,0.0603
22,AGATTAAA,-0.0115

row,Sequence,PBM E-score
1,CCATTGAC,-0.043
2,TCCGTTCA,0.277
3,AGAGTACG,0.237
4,GAGGGACA,0.0576
5,ATGTTAAT,0.0354
6,ATCGGAGC,-0.00581
7,ATAAGGGA,-0.0288
8,AACGTAAT,0.101
9,AGGCTCGC,0.188
10,CGAAGGAA,0.126
11,ATAAAGGC,-0.0848
12,ACCCGTAC,0.354
13,AGAACTCA,-0.133
14,AGTAGTGG,-0.164
15,CGGGTCTA,0.113
16,ACTGACCC,-0.206
17,AGGCGGGC,-0.214
18,ACATGTCA,-0.121
19,AATTAGAA,-0.0359
20,TAGGATCA,-0.0207
21,AACGCGAG,0.21
22,GACACTTA,0.0114

row,Sequence,PBM E-score
1,GCTGCAGA,-0.0488
2,ATGTCAAA,0.0208
3,AAACACTT,0.0888
4,GCCCCGGA,-0.184
5,GCAACCCA,-0.0298
6,ACACGCAA,-0.00615
7,GGCGCACC,-0.0291
8,CCAAACCA,-0.154
9,AGACGTAT,0.259
10,AGTGATCA,-0.0858
11,GTTATTAA,0.101
12,AACTGCAG,-0.0258
13,CAAAGTGA,-0.00649
14,CAACCCCA,-0.121
15,CAGACACC,-0.222
16,AGTTTGAT,-0.0284
17,CTAGTCCA,-0.412
18,CCCGACCG,0.0852
19,GAATCGGA,0.0185
20,GGCAACGA,0.33
21,ACGATACG,0.391
22,CGGTCTCC,-0.171

row,Sequence,PBM E-score
1,CGAAGGGA,-0.0715
2,CCGCGGAA,-0.0349
3,CCCGGACC,-0.205
4,CACCGTGC,0.0319
5,ATGTTCCC,-0.147
6,AACTGCAA,-0.0876
7,CTACGAAA,0.272
8,CATAAAGA,-0.0449
9,AGCACCAC,-0.186
10,GCCGTGCC,-0.123
11,TCAGTACA,0.0811
12,AATACCGT,0.169
13,CTCTGACA,-0.153
14,AGGAAAGC,-0.0443
15,ACTAAAGT,-0.222
16,CGACAATC,-0.0367
17,CCCCGTCA,-0.218
18,ACGTATAA,0.437
19,ACCCCTAG,-0.308
20,ATTCCAGC,-0.136
21,AGTCTTCC,-0.261
22,CGGATGCA,-0.138
